Some of the results follow. The list includes weakly bound sequences.
target: T1, MBP-FoxP3dN (UniProt Q99JB6); test: PD-seq (MBP pull-down with sequencing); settings: 20 mM Tris-HCl pH 7.5, 100 mM NaCl, 1.5 mM MgCl2, 0.4 uM protein, 0.1 uM dsDNA library, 30 min, room temperature, amylose pull-down; high values mean tight binding; double strand, one strand shown
T1 sequence: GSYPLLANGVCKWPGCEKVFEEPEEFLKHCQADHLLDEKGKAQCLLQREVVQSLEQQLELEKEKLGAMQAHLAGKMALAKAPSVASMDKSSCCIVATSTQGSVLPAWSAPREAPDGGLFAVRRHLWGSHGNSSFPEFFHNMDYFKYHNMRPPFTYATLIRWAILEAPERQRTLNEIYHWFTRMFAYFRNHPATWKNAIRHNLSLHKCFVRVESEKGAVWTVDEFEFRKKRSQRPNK

Row | Sequence | binding signal (RPM ratio (pull-down/input))
1 | GATGATTGTTCTCCCAGCTGATGAATTGTGCGTATCGAGTAAACAAATTTTCCTAATCTTTCTGTTCAAGCGCCATCTAC | 3.11
2 | GATGATTGTTCTCCCAGCTGATGAATTAAAGCCGTCGAGTAAACAAATTTTCCTAATCTTTCTGTTCAAGCGCCATCTAC | 0.531
3 | GATGATTGTTCTCCCAGCTGATGAATTAGTCGGTTCGAGTAAACAAATTTTCCTAATCTTTCTGTTCAAGCGCCATCTAC | 0.644
4 | GATGATTGTTCTCCCAGCTGATGAATTACAGAATTCGAGTAAACAAATTTTCCTAATCTTTCTGTTCAAGCGCCATCTAC | 0.649
5 | GATGATTGTTCTCCCAGCTGATGAATTTCCCACATCGAGTAAACAAATTTTCCTAATCTTTCTGTTCAAGCGCCATCTAC | 0.334
6 | GATGATTGTTCTCCCAGCTGATGAATTTTAATAGTCGAGTAAACAAATTTTCCTAATCTTTCTGTTCAAGCGCCATCTAC | 1.14
7 | GATGATTGTTCTCCCAGCTGATGAATTAATCCCGTCGAGTAAACAAATTTTCCTAATCTTTCTGTTCAAGCGCCATCTAC | 0.261
8 | GATGATTGTTCTCCCAGCTGATGAATTCCTCGATTCGAGTAAACAAATTTTCCTAATCTTTCTGTTCAAGCGCCATCTAC | 0.24
9 | GATGATTGTTCTCCCAGCTGATGAATTTTAATTATCGAGTAAACAAATTTTCCTAATCTTTCTGTTCAAGCGCCATCTAC | 2.58
10 | GATGATTGTTCTCCCAGCTGATGAATTAGTTAAATCGAGTAAACAAATTTTCCTAATCTTTCTGTTCAAGCGCCATCTAC | 0.299
11 | GATGATTGTTCTCCCAGCTGATGAATTTCAAACGTCGAGTAAACAAATTTTCCTAATCTTTCTGTTCAAGCGCCATCTAC | 0.302
12 | GATGATTGTTCTCCCAGCTGATGAATTGGTGATGTCGAGTAAACAAATTTTCCTAATCTTTCTGTTCAAGCGCCATCTAC | 1.26
13 | GATGATTGTTCTCCCAGCTGATGAATTGATGGATTCGAGTAAACAAATTTTCCTAATCTTTCTGTTCAAGCGCCATCTAC | 0.504
14 | GATGATTGTTCTCCCAGCTGATGAATTTAATTGCTCGAGTAAACAAATTTTCCTAATCTTTCTGTTCAAGCGCCATCTAC | 3.76
15 | GATGATTGTTCTCCCAGCTGATGAATTACTCTCTTCGAGTAAACAAATTTTCCTAATCTTTCTGTTCAAGCGCCATCTAC | 0.279
16 | GATGATTGTTCTCCCAGCTGATGAATTTATATCTTCGAGTAAACAAATTTTCCTAATCTTTCTGTTCAAGCGCCATCTAC | 1.4
17 | GATGATTGTTCTCCCAGCTGATGAATTTCTCGGATCGAGTAAACAAATTTTCCTAATCTTTCTGTTCAAGCGCCATCTAC | 0.173
18 | GATGATTGTTCTCCCAGCTGATGAATTACGTTTGTCGAGTAAACAAATTTTCCTAATCTTTCTGTTCAAGCGCCATCTAC | 3.25
19 | GATGATTGTTCTCCCAGCTGATGAATTAACGGCATCGAGTAAACAAATTTTCCTAATCTTTCTGTTCAAGCGCCATCTAC | 0.796
20 | GATGATTGTTCTCCCAGCTGATGAATTTCTGGAGTCGAGTAAACAAATTTTCCTAATCTTTCTGTTCAAGCGCCATCTAC | 0.197
21 | GATGATTGTTCTCCCAGCTGATGAATTTTCTTGCTCGAGTAAACAAATTTTCCTAATCTTTCTGTTCAAGCGCCATCTAC | 0.298

Row | Sequence | binding signal (RPM ratio (pull-down/input))
22 | GATGATTGTTCTCCCAGCTGATGAATTAACTGAGTCGAGTAAACAAATTTTCCTAATCTTTCTGTTCAAGCGCCATCTAC | 0.225
23 | GATGATTGTTCTCCCAGCTGATGAATTGTGGGATTCGAGTAAACAAATTTTCCTAATCTTTCTGTTCAAGCGCCATCTAC | 0.702
24 | GATGATTGTTCTCCCAGCTGATGAATTGCAATGATCGAGTAAACAAATTTTCCTAATCTTTCTGTTCAAGCGCCATCTAC | 1.18
25 | GATGATTGTTCTCCCAGCTGATGAATTAAACGGCTCGAGTAAACAAATTTTCCTAATCTTTCTGTTCAAGCGCCATCTAC | 0.333
26 | GATGATTGTTCTCCCAGCTGATGAATTTTGACCGTCGAGTAAACAAATTTTCCTAATCTTTCTGTTCAAGCGCCATCTAC | 0.489
27 | GATGATTGTTCTCCCAGCTGATGAATTCTCTTCCTCGAGTAAACAAATTTTCCTAATCTTTCTGTTCAAGCGCCATCTAC | 0.234
28 | GATGATTGTTCTCCCAGCTGATGAATTGCGTCTATCGAGTAAACAAATTTTCCTAATCTTTCTGTTCAAGCGCCATCTAC | 1.52
29 | GATGATTGTTCTCCCAGCTGATGAATTGTCCGACTCGAGTAAACAAATTTTCCTAATCTTTCTGTTCAAGCGCCATCTAC | 0.25
30 | GATGATTGTTCTCCCAGCTGATGAATTTAGGACATCGAGTAAACAAATTTTCCTAATCTTTCTGTTCAAGCGCCATCTAC | 0.527
31 | GATGATTGTTCTCCCAGCTGATGAATTGGACGCATCGAGTAAACAAATTTTCCTAATCTTTCTGTTCAAGCGCCATCTAC | 1.01
32 | GATGATTGTTCTCCCAGCTGATGAATTTGCAGAATCGAGTAAACAAATTTTCCTAATCTTTCTGTTCAAGCGCCATCTAC | 0.301
33 | GATGATTGTTCTCCCAGCTGATGAATTTGCTAATTCGAGTAAACAAATTTTCCTAATCTTTCTGTTCAAGCGCCATCTAC | 0.79
34 | GATGATTGTTCTCCCAGCTGATGAATTCGACCTGTCGAGTAAACAAATTTTCCTAATCTTTCTGTTCAAGCGCCATCTAC | 0.319
35 | GATGATTGTTCTCCCAGCTGATGAATTCTGTTCGTCGAGTAAACAAATTTTCCTAATCTTTCTGTTCAAGCGCCATCTAC | 0.812
36 | GATGATTGTTCTCCCAGCTGATGAATTATGTTATTCGAGTAAACAAATTTTCCTAATCTTTCTGTTCAAGCGCCATCTAC | 7.23
37 | GATGATTGTTCTCCCAGCTGATGAATTTCAGGCGTCGAGTAAACAAATTTTCCTAATCTTTCTGTTCAAGCGCCATCTAC | 0.461
38 | GATGATTGTTCTCCCAGCTGATGAATTAAGGCCGTCGAGTAAACAAATTTTCCTAATCTTTCTGTTCAAGCGCCATCTAC | 0.582
39 | GATGATTGTTCTCCCAGCTGATGAATTAGAGGCATCGAGTAAACAAATTTTCCTAATCTTTCTGTTCAAGCGCCATCTAC | 1.28
40 | GATGATTGTTCTCCCAGCTGATGAATTGACTTATTCGAGTAAACAAATTTTCCTAATCTTTCTGTTCAAGCGCCATCTAC | 0.621
41 | GATGATTGTTCTCCCAGCTGATGAATTTCGCGCCTCGAGTAAACAAATTTTCCTAATCTTTCTGTTCAAGCGCCATCTAC | 1.73
42 | GATGATTGTTCTCCCAGCTGATGAATTTATGGCTTCGAGTAAACAAATTTTCCTAATCTTTCTGTTCAAGCGCCATCTAC | 1.11

Row | Sequence | binding signal (RPM ratio (pull-down/input))
43 | GATGATTGTTCTCCCAGCTGATGAATTGTGCTTATCGAGTAAACAAATTTTCCTAATCTTTCTGTTCAAGCGCCATCTAC | 5.43
44 | GATGATTGTTCTCCCAGCTGATGAATTGCTCGCCTCGAGTAAACAAATTTTCCTAATCTTTCTGTTCAAGCGCCATCTAC | 0.728
45 | GATGATTGTTCTCCCAGCTGATGAATTCGACTTGTCGAGTAAACAAATTTTCCTAATCTTTCTGTTCAAGCGCCATCTAC | 0.606
46 | GATGATTGTTCTCCCAGCTGATGAATTACGGTGTTCGAGTAAACAAATTTTCCTAATCTTTCTGTTCAAGCGCCATCTAC | 0.933
47 | GATGATTGTTCTCCCAGCTGATGAATTCTGCTTCTCGAGTAAACAAATTTTCCTAATCTTTCTGTTCAAGCGCCATCTAC | 2.01
48 | GATGATTGTTCTCCCAGCTGATGAATTGAGGTATTCGAGTAAACAAATTTTCCTAATCTTTCTGTTCAAGCGCCATCTAC | 0.974
49 | GATGATTGTTCTCCCAGCTGATGAATTTTATACTTCGAGTAAACAAATTTTCCTAATCTTTCTGTTCAAGCGCCATCTAC | 0.464
50 | GATGATTGTTCTCCCAGCTGATGAATTAAATAGCTCGAGTAAACAAATTTTCCTAATCTTTCTGTTCAAGCGCCATCTAC | 0.406
51 | GATGATTGTTCTCCCAGCTGATGAATTCCGCCCGTCGAGTAAACAAATTTTCCTAATCTTTCTGTTCAAGCGCCATCTAC | 2.48
52 | GATGATTGTTCTCCCAGCTGATGAATTACTTACTTCGAGTAAACAAATTTTCCTAATCTTTCTGTTCAAGCGCCATCTAC | 0.438
53 | GATGATTGTTCTCCCAGCTGATGAATTTACCCCTTCGAGTAAACAAATTTTCCTAATCTTTCTGTTCAAGCGCCATCTAC | 0.387
54 | GATGATTGTTCTCCCAGCTGATGAATTAATACAATCGAGTAAACAAATTTTCCTAATCTTTCTGTTCAAGCGCCATCTAC | 0.959
55 | GATGATTGTTCTCCCAGCTGATGAATTTTAGTCCTCGAGTAAACAAATTTTCCTAATCTTTCTGTTCAAGCGCCATCTAC | 0.354
56 | GATGATTGTTCTCCCAGCTGATGAATTGCGAAATTCGAGTAAACAAATTTTCCTAATCTTTCTGTTCAAGCGCCATCTAC | 0.938
57 | GATGATTGTTCTCCCAGCTGATGAATTGCGTTGGTCGAGTAAACAAATTTTCCTAATCTTTCTGTTCAAGCGCCATCTAC | 1.74
58 | GATGATTGTTCTCCCAGCTGATGAATTGCTTCAATCGAGTAAACAAATTTTCCTAATCTTTCTGTTCAAGCGCCATCTAC | 0.425
59 | GATGATTGTTCTCCCAGCTGATGAATTATAGACGTCGAGTAAACAAATTTTCCTAATCTTTCTGTTCAAGCGCCATCTAC | 0.36
60 | GATGATTGTTCTCCCAGCTGATGAATTATCAAAATCGAGTAAACAAATTTTCCTAATCTTTCTGTTCAAGCGCCATCTAC | 0.251
61 | GATGATTGTTCTCCCAGCTGATGAATTGTTAGCATCGAGTAAACAAATTTTCCTAATCTTTCTGTTCAAGCGCCATCTAC | 2.56
62 | GATGATTGTTCTCCCAGCTGATGAATTTGCAGGCTCGAGTAAACAAATTTTCCTAATCTTTCTGTTCAAGCGCCATCTAC | 0.639
63 | GATGATTGTTCTCCCAGCTGATGAATTAGAATGGTCGAGTAAACAAATTTTCCTAATCTTTCTGTTCAAGCGCCATCTAC | 0.389

Source: paper PMC12820563
